Results: PubChem BioAssay AID1508642 (National Center for Advancing Translational Sciences (NCATS), 2021)
Hit rate of the full screen: of about 43,000 compounds, about 200 (0.47%) were called active. Roughly 12% stayed inconclusive and do not appear here. Calls follow the shape of the dose curve; as a rule, active = well fitted cell-killing curve with a large enough effect; inconclusive = small, poorly fitted or top-dose-only effect, or effect the other way; inactive = flat fitted curve, though single readings scatter. The list shows a part of the results.

Assay: Cell viability qHTS assay in S16 Pmp22-F2sN cells; also: nearly all actives have a fitted effect of over 65% in size
Conditions: S16 Pmp22-F2sN Schwann cells (luciferase reporters placed in the Pmp22 gene) viability, CellTiter-Glo, 24 h; series mostly up to 57.5 µM; activity change, negative = cytotoxicity: at the top concentration
Method in brief: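 Seed 500-1,000 S16 Pmp22-F2sN cells per well in phenol-red-free DMEM with 10% heat-inactivated FBS; pin-add 23 nL compound; incubate 24 h at 37C; add CellTiter-Glo, wait 15 min protected from light; read luminescence.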
% is scaled to controls: 0 for no effect and ±100 for the full control effect.

Row | SMILES | activity change, negative = cytotoxicity
1 | C=C(C)Cn1c(=O)c2c(nc3n2CCN3c2ccc(CC)cc2)n(C)c1=O | inactive: 0.0162%
2 | CCC(=O)N1CCc2cc(S(=O)(=O)NC(Cc3ccccc3)C(=O)Nc3ccc(C)cc3)ccc21 (stereo unspecified) | inactive: 1%
3 | Cc1ccc(NC(=O)c2sc3nc(-c4cc5ccccc5oc4=O)[nH]c(=O)c3c2C)c(C)c1 | inactive: -7.3%
4 | COc1cc(C(=O)Nc2cc3c(cc2C)n(C)c(=O)c(=O)n3C)cc(OC)c1OC | inactive: -13.3%
5 | CCOc1ccc(-n2c(SCc3ccc(C(=O)OC)o3)nc3c([nH]c4ccccc43)c2=O)cc1 | inactive: 18.5%
6 | COc1cc(C(=O)Nc2cc(C)ccc2OCc2cc(=O)n3c(C)csc3n2)cc(OC)c1OC | inactive: -3.82%
7 | O=C(CC1Sc2ccc(C(F)(F)F)cc2NC1=O)Nc1ccc(Cl)c(C(F)(F)F)c1 (stereo unspecified) | inactive: -13.8%
8 | Cc1ccc2occ(CC(=O)Nc3ccc(S(N)(=O)=O)cc3)c2c1 | inactive: 4.26%
9 | COc1ccc(-c2nc(SCC(=O)NCCCc3ccccc3)n[nH]2)cc1 | inactive: -7.36%
10 | Cc1cc(OCC(=O)Nc2sc3c(c2C(N)=O)CCCC3)ccc1C(C)C | inactive: -3.04%
11 | COc1ccc(NC(=O)Cn2c(C)c3cnn(-c4ccccc4)c(=O)c3c2C)c(OC)c1 | inactive: -10%
12 | Cc1ccc(N(CC(=O)NC(C)c2ccccc2)S(=O)(=O)c2c(C)noc2C)cc1 (stereo unspecified) | inactive: -18.8%
13 | Cc1cccc(-c2noc(C3CC(=O)N(c4ccc5c(c4)OCCO5)C3)n2)c1 (stereo unspecified) | inactive: 16.4%
14 | COc1ccc(C(=O)CCC(=O)Nc2ccccc2C)cc1 | inactive: 3.73%
15 | COc1ccccc1NC(=O)CSCc1cc(=O)c2c(C)cc(C)cc2[nH]1 | inactive: 11.7%
16 | Cc1cccc(NC(=O)C2CCCN(S(=O)(=O)c3c(C)noc3/C=C/N(C)C)C2)c1C (stereo unspecified) | inactive: 9.17%
17 | CCC(Sc1nncn2c1cc1sccc12)C(=O)Nc1cccc(OC)c1 (stereo unspecified) | inactive: -20.2%
18 | CC(C)(C)C1CCc2nc(NC(=O)Cc3ccc(Cl)cc3)sc2C1 (stereo unspecified) | inactive: -15%
19 | Cc1cc(C)c2c(=O)cc(CSCC(=O)Nc3nnc(C)s3)[nH]c2c1 | inactive: 21.3%
20 | CCCNC(=O)Nc1cc(C(=O)NCc2cccc(OCC)c2)ccc1N1CCCC1 | inactive: -0.0036%
21 | COc1ccc(N(C)C(=O)NCc2noc3ccc(C)cc23)c(OC)c1 | inactive: 9.28%
22 | CCOC(=O)CC(NC(=O)Cn1nnc(-c2ccccc2C)n1)c1ccc(OC)cc1 (stereo unspecified) | inactive: -4.87%
23 | Cc1cc2nc3c(=O)n(C)c(=O)n(C)c3nc2cc1N=CN(C)C | inactive: -3.19%
24 | CCC(=O)N1CCc2cc(Br)cc(S(=O)(=O)CCC(=O)Nc3ccccc3C)c21 | inactive: -1.75%
25 | CC(C)(C)c1ccc(C(=O)Nc2ccccc2C(=O)OCc2cc(=O)n3ccsc3n2)cc1 | inactive: 1.94%
26 | Cc1ccc(CN2CCN(C3CCN(C(=O)OC(C)(C)C)CC3)C(=O)C2=O)cc1 | inactive: -3.86%
